# The full ranking holds about 110,000 compounds; the median of “z-score” is about -0.1, and the highest 2% start at about 2. The list shows a part of the results. Active and inactive are the calls of the source.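 The calls were made as follows: active = z-score in the third read window above 3 or below -3; inactive = the rest.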
# Target: Metabotropic glutamate receptor 8 (Rattus norvegicus) (UniProt P70579)
# Test: mGluR8 Gi/Go-coupled signaling modulation – cell-based, rat, thallium flux, HTS, primary screen (AID 488969)
# Details: HEK293 rat mGluR8, GIRK (G protein-gated inwardly rectifying potassium channel) thallium flux, FluoZin2; at 10 µM; stronger effect = higher value; submaximal glutamate (EC20) added with thallium
# UniProt P70579, sequence (P70579 whole entry, looked up): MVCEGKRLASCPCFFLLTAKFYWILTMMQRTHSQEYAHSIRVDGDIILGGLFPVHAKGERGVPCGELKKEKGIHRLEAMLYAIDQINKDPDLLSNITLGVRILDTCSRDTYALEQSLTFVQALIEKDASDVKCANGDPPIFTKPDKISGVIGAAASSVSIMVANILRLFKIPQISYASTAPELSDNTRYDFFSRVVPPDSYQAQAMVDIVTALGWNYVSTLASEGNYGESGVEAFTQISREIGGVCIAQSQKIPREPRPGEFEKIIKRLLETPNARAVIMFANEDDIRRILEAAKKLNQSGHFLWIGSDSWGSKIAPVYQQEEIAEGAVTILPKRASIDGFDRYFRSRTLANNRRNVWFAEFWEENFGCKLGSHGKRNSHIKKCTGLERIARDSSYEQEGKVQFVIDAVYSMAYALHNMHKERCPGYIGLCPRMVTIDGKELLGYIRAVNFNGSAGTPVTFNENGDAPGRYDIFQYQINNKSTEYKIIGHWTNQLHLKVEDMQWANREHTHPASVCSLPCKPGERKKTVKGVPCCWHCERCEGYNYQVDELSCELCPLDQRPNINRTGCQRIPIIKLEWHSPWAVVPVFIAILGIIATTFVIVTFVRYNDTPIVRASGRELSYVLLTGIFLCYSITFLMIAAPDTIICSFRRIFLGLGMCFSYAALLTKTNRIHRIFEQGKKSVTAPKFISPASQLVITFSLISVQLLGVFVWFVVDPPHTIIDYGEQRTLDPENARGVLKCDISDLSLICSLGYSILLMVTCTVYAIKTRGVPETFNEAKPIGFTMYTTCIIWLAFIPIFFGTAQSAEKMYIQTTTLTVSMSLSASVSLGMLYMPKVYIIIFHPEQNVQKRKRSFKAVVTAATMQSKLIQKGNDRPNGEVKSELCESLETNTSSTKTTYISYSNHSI
row,Compound,z-score
1,COc1ccc(NC(=O)/C(Cl)=C(/Cl)S(=O)(=O)Cc2ccc(C)cc2)cn1,-0.418
2,CCOc1ccc(-c2nc(CSc3nnc(C)s3)cs2)cc1OC,-0.138
3,COc1cccc(/C=N/NC(=O)CCCc2ccc(OC)c(C)c2)c1,-0.14
4,Cc1n[nH]c(C)c1S(=O)(=O)N1CCC(C(=O)N2CCn3c2nc2ccccc23)CC1,-0.214
5,CC1Cc2ccccc2N1C(=O)Cn1cc([N+](=O)[O-])cn1 (centres undefined),0.028
6,CC1CN(C(NC(=O)C(C)(C)C)C(Cl)(Cl)Cl)CC(C)O1 (centres undefined),-0.239
7,COc1ccc2c(c1)C(=O)C(=O)N2,0.231
8,O=C(NCCCN1CCCC1=O)c1cccnc1,0.295
9,Cc1ccc(S(=O)(=O)N(C)C)cc1NC(=O)COC(=O)c1ccc2c(c1)OCO2,1.63
10,O=C(NC1(C(F)(F)F)C(=O)Nc2c1c(=O)[nH]c(=O)n2-c1ccc(F)cc1)c1cccnc1 (centres undefined),-0.0735
11,CCn1c(NC(=O)c2ccc(COc3ccc(C)cc3[N+](=O)[O-])o2)nc2ccccc21,-0.789
12,CCOC(=O)c1cc2c(=O)n3cccc(C)c3nc2n(CCOC)c1=NC(=O)c1ccncc1,0.508
13,O=C(Nc1ccc(Cl)cc1)N1CCCN(Cc2ccccc2F)C1,-0.218
14,COc1ccc(C(=O)Nc2ccc(S(=O)(=O)Nc3onc(C)c3C)cc2)cc1,0.375
15,Cc1ccc(-c2cc(C(=O)N/N=C/c3c(C)nn(C)c3C)c3ccccc3n2)cc1C,-0.146
16,COC(=O)C1=C(C)NC(=O)NC1c1cccc(OC)c1OCc1ccccc1 (centres undefined),-0.318
17,CC1CCCC(C)N1C(=O)COC(=O)c1ccc[nH]c1=O (centres undefined),0.601
18,CCCCOC(=O)NCN1C(=O)C2C3C=CC(C3)C2C1=O (centres undefined),0.62
19,CCn1c(COc2ccccc2C)nnc1SCC(=O)N1CCCCC1,0.371
20,Cc1ccc(Cn2ccc(NC(=O)c3cc(C)on3)n2)cc1,-0.0436
21,COc1cc(/C=C(/C(=O)c2cccs2)c2nc3ccccc3[nH]2)ccc1O,0.561
22,O=C(NN1CCOCC1)c1cc(-c2cccc(Cl)c2)nc2ccccc12,-0.126

row,Compound,z-score
1,O=c1cc(N2CCN(c3cccc(Cl)c3)CC2)[nH]c(=O)n1C1CCCCC1,-0.16
2,CCOC(=O)C1(Cc2ccc(O)cc2)NC(c2ccccc2F)C2C(=O)N(C)C(=O)C21 (centres undefined),-0.227
3,CCOC(=O)C(C)Sc1nc2ccccc2c(=O)n1CC (centres undefined),-0.22
4,COC(=O)COc1nsnc1N1CCOCC1,0.175
5,O=CNCC(=O)NC1CCCCCC1,-0.213
6,O=C(O)c1cc(Cl)c(Cl)cc1C(=O)Nc1cccc2cccnc12,-0.462
7,CCN(CC)S(=O)(=O)c1cc(-c2nnc(-c3ccc(Br)cc3)o2)ccc1Br,-0.294
8,Cc1nc2scc(-c3ccc(Cl)cc3)c2c(=O)o1,0.315
9,CCN1CCN(C(=S)Nc2ccc(Cl)c(Cl)c2)CC1,-0.229
10,CCOC(=O)c1c(C)[nH]c(C(=O)COC(=O)/C=C/c2ccc3c(c2)OCO3)c1C,0.00271
11,COc1ccc(C(=O)Oc2c(CN3CCOCC3)cc(Cl)c3cccnc23)cc1OC,-0.19
12,COc1ccc(OC)c(NS(=O)(=O)c2ccc(NC(=O)C3COc4ccccc4O3)cc2)c1 (centres undefined),0.498
13,CC(C)(C)NS(=O)(=O)c1ccc(NC(=O)C(Sc2ccccc2)c2ccccc2)cc1 (centres undefined),0.111
14,O=C(Nc1sc2c(c1C(=O)NCc1cccnc1)CCCC2)c1ccco1,-1.12
15,CCOC(=O)c1c[nH]c2c(C)cc(C)cc2c1=O,0.0125
16,O=C(CNC(=O)c1ccccc1Cl)N/N=C/c1ccc([N+](=O)[O-])s1,-0.607
17,Cc1ccccc1-c1ccc(Nc2ccc(N3CCOCC3)cc2)nn1,0.369
18,O=C1CC(N2CCC(c3nc4ccccc4o3)CC2)C(=O)N1Cc1cccs1 (centres undefined),0.689
19,O=C(c1cccs1)N1CCN(C(=O)c2ccco2)c2ccccc2C1,0.586
20,CSc1nc(NC(C)=O)nc(C)c1Cl,1.54
21,Cc1cc(C)cc(Nc2nc3c(S(=O)(=O)c4ccccc4)nnn3c3ccccc23)c1,-0.244
22,Cc1[nH]c(=O)[nH]c(=O)c1S(=O)(=O)N1CCN(c2ccccc2F)CC1,0.1

row,Compound,z-score
1,O=C(O)CCC(=O)NC1CCCCC1NC(=O)CCC(=O)O (centres undefined),2.2
2,CCc1ccc(C2=C/C(=C/c3cccnc3)C(=O)O2)cc1,-0.0742
3,O=C(Cn1cc(C(=O)C2CC2)c2ccccc21)NCc1ccc2c(c1)OCO2,-0.87
4,Cc1cc2cc3c(cc2nc1SCC(=O)N1c2ccccc2CC1C)OCO3 (centres undefined),-0.377
5,CCC(C)Sc1nc(C)nc2c1c(=O)n(C)c(=O)n2C (centres undefined),-0.806
6,S=C(Nc1cccc2ccccc12)NN1CCOCC1,0.136
7,COc1cc(/C=N/NC(=O)CSc2cc(C)c(Br)cc2C)ccc1O,-0.102
8,N#CCSC1=Nc2ccccc2C2=NC(CCC(=O)N3CCN(c4ccccc4)CC3)C(=O)N12 (centres undefined),-0.493
9,Cc1ccc(SCc2nc3ccccc3n2CC(=O)Nc2c(C)cccc2C)cc1,-0.279
10,CCCOc1ccc(NC(=O)c2c(-c3ccccc3)noc2C)cc1,0.892
11,Cc1cc(C)c2c(N)c(C(=O)NCc3ccco3)sc2n1,1.04
12,O=C1CCCc2c1[nH]c1c(Br)cccc21,-1.04
13,CC(C)(C)c1ccc(CNc2ccc([N+](=O)[O-])cn2)cc1,-0.139
14,COc1ccc(/C(O)=C/C(=O)C(=O)NNC(=O)C(O)(c2ccccc2)c2ccccc2)cc1,-0.343
15,O=c1c2ccccc2nc2n1CCCS2,0.17
16,CCc1ccc(N(C(=O)c2csnn2)C(C(=O)NC(C)(C)C)c2ccncc2)cc1 (centres undefined),-0.302
17,CCn1c(NC(=O)C2CCCCC2)nc2ccccc21,0.0465
18,COc1ccccc1Nc1nc2nonc2nc1N1CCC(C)CC1,-0.00241
19,Cc1ccc(S(=O)(=O)/N=C(\Sc2ccccc2)c2ccccc2)cc1,-0.334
20,NC(=O)C1(N2CCCCC2)CCN(C(=O)CSc2nc3ccccc3o2)CC1,-0.0448
21,COc1ccc2c(=O)c3c(=O)n(Cc4ccco4)c(-c4ccco4)nc3oc2c1,-0.397
22,O=C(CN1CCOCCOCCOCCOCC1)Nc1ccccc1,0.356

row,Compound,z-score
1,Cc1ccc(NC(NC(=O)OCCn2c([N+](=O)[O-])cnc2C)C(Cl)(Cl)Cl)cc1 (centres undefined),-0.062
2,COc1cc(NC(=O)CSc2c3c(nc4ccccc24)CCC3)cc(OC)c1OC,-0.484
3,CCN(CC)c1nc2cc(OC)ccc2cc1C#N,-0.0869
4,Cc1ccc2cccc(NC(=S)NC(=O)c3ccn(C)n3)c2n1,active: 6.02
5,CCOC(=O)C1CCN(C(=O)CCCN2C(=O)c3ccccc3C2=O)CC1,-0.664
6,Cc1noc(/C=C/c2ccco2)c1S(=O)(=O)N1CCC(C(=O)N(C)Cc2ccccc2)CC1,-1.36
7,Cc1ccc(S(=O)(=O)N2CCOCC2)cc1C(=O)N1c2ccccc2Sc2ccccc21,0.231
8,COC(=O)C(C)N(C(=O)c1ccc(Cl)cc1)c1c(C)cccc1C (centres undefined),-1.48
9,CCCn1c(=O)c(C(=O)Nc2ccccc2)c(O)c2ccccc21,-0.0454
10,SC(COCc1ccccc1)CN1CCN(Cc2ccc3c(c2)OCO3)CC1 (centres undefined),active: 3.02
11,Cc1cc2ncn(C(=O)c3ccc4c(c3)OCO4)c2cc1C,0.0971
12,COc1cccc(OC)c1C(=O)Oc1ccc2c(c1)O/C(=C\c1ccncc1)C2=O,0.431
13,COc1ccccc1CC(=O)N1CCCC1,-0.143
14,COc1cc(NC(=O)C2=C(N3CCOCC3)/C(=C\c3ccc(N(C)C)cc3)CCC2)cc(OC)c1OC,-0.105
15,Cc1ccc(C(=O)NCCSC2CCCCC2)cc1S(=O)(=O)Nc1ccccc1,-0.211
16,COc1ccccc1N=C1SC(C)CN1C(=O)C1CCC1 (centres undefined),0.297
17,COc1ccc(C(c2sc3ncnn3c2O)N2CCN(c3ccccc3F)CC2)cc1OC (centres undefined),-0.6
18,O=C(Nc1ccc(NC(=S)NC(=O)C(c2ccccc2)c2ccccc2)cc1)c1ccccc1,0.283
19,Cc1cc(C)c2cc(C)c3nnc(SCC(=O)NCc4ccc5c(c4)OCO5)n3c2c1,-0.513
20,CCN1CCN(C(=O)CN(c2cccc(Br)c2)S(=O)(=O)c2ccccc2)CC1,-0.269
21,COc1ccc(/C=N/n2c(=O)[nH]c3c([nH]c4ccc(C)cc43)c2=O)cc1CN1CCOCC1,-0.0345
22,O=C(Nc1nnc(-c2ccc(Cl)cc2)o1)c1cccc(N2C(=O)CCC2=O)c1,active: 3.29

row,Compound,z-score
1,CCC1(C)CC(C(CC(=O)O)c2ccc(C)cc2)CCO1 (centres undefined),-0.199
2,CC(NCCOCCOc1ccccc1)c1ccccc1 (centres undefined),0.0881
3,CC(=O)c1ccc(N(C)C)cc1,-0.896
4,Cc1cc(C)c2nc(SCC(=O)NCCN3C(=O)CSC3=O)cc(C)c2c1,-0.238
5,O=C1c2cccc3cccc(c23)C(=O)N1CC1CCN(CC(O)COCc2ccc3c(c2)OCO3)CC1 (centres undefined),0.758
6,CCOC(=O)N1CCN(c2ccc(C(C)=O)cc2F)CC1,-0.263
7,COc1cc(C2NC(C(=O)O)Cc3c2[nH]c2ccccc32)cc(OC)c1OC (centres undefined),-0.234
8,Cc1cc(C)n(-c2nnc(C)n2/N=C/c2ccco2)n1,1.04
9,CC1CCCCN1C(=O)N[C@@H](Cc1ccccc1)C(=O)O (some centres undefined),-0.3
10,NNC(=O)c1ccc(Cl)cc1Cl,-0.0992
11,Cc1cc(C(=O)Nc2sc3c(c2C#N)CCC(C)C3)cs1 (centres undefined),0.144
12,CS(=O)(=O)N(CC(=O)N1CCCC1)Cc1ccc(Cl)cc1,-0.52
13,COC(=O)c1ccc(NC(=O)C(=O)N2CCN(C(=S)Nc3ccc(OC)cc3)CC2)cc1,-0.0415
14,CCCC(C(=O)NC1CCCC1)N(CC1CCCO1)C(=O)c1snc(C(N)=O)c1N (centres undefined),-0.243
15,CC(NC(=O)CSc1nc2c(c(C(F)(F)F)n1)CCc1ccccc1-2)c1ccccc1 (centres undefined),0.0834
16,Cn1nnc2cc(C(=O)NCc3ccco3)ccc21,0.326
17,Cc1cc(OCC(=O)NC(C)C)cc(C)c1Cl,-0.16
18,CCOc1ccc(C(=O)NCC(=O)OCc2csc(-c3ccccc3)n2)cc1,-0.162
19,O=C(CSc1nnc(-c2ccccc2)c(-c2ccccc2)n1)N1CCOCC1,0.388
20,CCn1nc(C)c(NS(=O)(=O)c2ccc(C)cc2)c1C,0.741
21,COc1cc(C2C(Oc3ccccc3C)C(=O)N2Cc2ccc(F)cc2)cc(OC)c1OC (centres undefined),-0.106

# From PubChem BioAssay AID488969 (Vanderbilt High Throughput Screening Facility, 2010)
